The record followed here is patent publication US20250313626A1 (HARBOUR BIOMED SHANGHAI, published 2025).

Read-outs that look alike come from different tables or passages of the source.

Experiment [1] has as its target T1, human CD200R1 isoform a on CHOK1 cells (CHOK1/hCD200R1a) (human, UniProt Q8TD46 25-348).
T1 construct: also called CHOK1/CD200R1a
T1 sequence: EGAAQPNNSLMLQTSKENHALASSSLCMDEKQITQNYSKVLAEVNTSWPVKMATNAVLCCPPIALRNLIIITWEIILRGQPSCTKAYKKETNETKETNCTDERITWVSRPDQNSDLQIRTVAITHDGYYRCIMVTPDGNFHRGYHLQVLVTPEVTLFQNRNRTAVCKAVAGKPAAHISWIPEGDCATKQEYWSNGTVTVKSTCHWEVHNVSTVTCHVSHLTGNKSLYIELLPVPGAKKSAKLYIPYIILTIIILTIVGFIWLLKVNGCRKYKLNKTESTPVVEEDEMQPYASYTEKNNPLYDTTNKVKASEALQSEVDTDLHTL
The experiment can be described thus: flow cytometry, CHOK1/hCD200R1a cells; table beside the curves. As to the method:
(§1) This example is intended to investigate the in vitro binding activity of human anti-CD200R1 monoclonal antibodies to human/Cynomolgus macaques CD200R1a expressed on the surface of cells. The anti-CD200R1 antibodies were produced as described in Example 3.4 and the binding experiments at the cell level were performed using CHOK1/hCD200R1a and CHOK1-cynoCD200R1a.
(§2) Briefly, CHOK1/hCD200R1a cells and CHOK1-cynoCD200R1a cells were digested, and collected, and then were resuspended in PBS containing 2% BSA, respectively. The cell density was adjusted to 1×10⁶ cells/mL. The cells were seeded in a 96-well V-bottom plate (Corning, #3894) at 100 μL/well, followed by the addition of test antibodies and reference antibodies in a series diluted concentration, each at 100 μL/well. The cells were incubated away from light at 4° C. for 1 h. Thereafter, the cells in each well were rinsed twice with 100 μL of pre-cooled PBS containing 2% BSA, and centrifuged at 500 g at 4° C. for 5 min, and then the supernatant was discarded. […] Finally, the cells in each well were resuspended in 200 μL of pre-cooled PBS containing 2% BSA, and the fluorescence signal values were read using a BD CantoII flow cytometer.
On the technique in general: Flow cytometry measures light scatter and fluorescence of single cells or particles in a stream.

Experiment [2] has as its target T1, human CD200R1 isoform a on CHOK1 cells …. Kind of experiment: flow cytometry, CHOK1/hCD200R1a cells (FITC-Mean); table beside the curves. How it is done: as §1, §2
Experiment [3] concerns the target T2, human CD200R1a protein (soluble recombinant) (human, UniProt Q8TD46 29-265).
T2 construct: Soluble protein used in BLI; also called human CD200R1 isoform a; not shown: His tag implied by capture on anti-Penta-HIS biosensors
T2 sequence: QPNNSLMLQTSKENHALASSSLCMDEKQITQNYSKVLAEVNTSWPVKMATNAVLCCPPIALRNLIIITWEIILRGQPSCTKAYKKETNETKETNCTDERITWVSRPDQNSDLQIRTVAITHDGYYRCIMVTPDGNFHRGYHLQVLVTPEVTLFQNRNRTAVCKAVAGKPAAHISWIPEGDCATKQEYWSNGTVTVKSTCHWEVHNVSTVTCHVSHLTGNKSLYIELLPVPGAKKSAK
The experiment can be described thus: BLI (Octet), antibody captured on anti-human Fc sensor, soluble CD200R1a as analyte, 1:1 fit. As to the method: (§3) To determine the binding affinities of the anti-CD200R1 antibodies to CD200R1a proteins of various species (mouse, human, Cynomolgus macaques), bio-layer interferometry (BLI) assays were carried out using an Octet® RED96e instrument. Antibodies were produced as described in Example 3.4 and diluted to 5 μg/mL using freshly prepared 1× kinetic buffer (10× kinetic buffer (Catalog #18-1105, ForteBio) was diluted with PBS(Catalog #E607016-0500, BBI Life Sciences)) and were captured on the surface of anti-human Fc (AHC) Octet biosensors (Catalog #18-5060, ForteBio) to reach capture levels between 0.9-1.2 nm. The biosensors having the captured anti-CD200R1 antibodies were then dipped in wells containing 2-fold serial dilutions of CD200R1a proteins to detect association signals, followed by dissociation steps in wells containing 1× kinetic buffer. The sensorgrams were recorded and the reference signals were subtracted before curve fitting using ForteBio Data Analysis 11.0 software. Association rates (kₒₙ) and dissociation rates (koff) were calculated using a simple one-to-one Langmuir binding model. The equilibrium dissociation constant (KD) was calculated as the ratio of koff/kₒₙ.
A general note: BLI is a label-free optical method that tracks binding on a fibre tip over time.

The target in experiment [4] is T3, Cyno CD200R1a-His (Cynomolgus macaques, UniProt Q8TD46 25-265 (human entry)).
T3 construct: Soluble protein used in BLI; also called Cynomolgus macaques CD200R1a recombinant protein; not shown: His tag
T3 chain: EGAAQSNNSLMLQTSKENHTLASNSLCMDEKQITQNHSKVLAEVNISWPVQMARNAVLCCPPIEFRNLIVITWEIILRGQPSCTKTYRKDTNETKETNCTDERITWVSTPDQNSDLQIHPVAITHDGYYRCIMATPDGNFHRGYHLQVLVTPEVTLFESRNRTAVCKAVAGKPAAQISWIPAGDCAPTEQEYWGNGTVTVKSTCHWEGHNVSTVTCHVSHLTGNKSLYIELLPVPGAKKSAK
The description is as above. How it is done: as §3

Experiment [5] addresses T1, human CD200R1 isoform a on CHOK1 cells …. The experiment can be described thus: flow cytometry, CHOK1/hCD200R1a cells; table beside the curves, head without unit, x axis Log [Ab] (nM). How it is done:
as §1, §2

Experiment [6] shares this target. The experiment can be described thus: flow cytometry blocking assay: biotin-labelled human CD200 binding to CHOK1/hCD200R1a cells; y axis Inhibition %. How it is done:
(§4) In brief, CHOK1/hCD200R1a cells were digested and resuspended in 2% BSA in PBS. […] The cells were placed at 4° C. and incubated for 1 hour in the dark. […] 100 μL/well of pre-cooled PBS containing 2% BSA was added to rinse the cells twice, centrifugation was performed at 500 g, 4° C. for 5 minutes, and the supernatant was discarded. Fluorescent secondary antibody (PE Streptavidin, BD, Cat #: 554061, 1:200) was added at 100 μL/well, and incubation was performed at 4° C. for 30 minutes in the dark. The cells were washed twice with 200 μL/well of pre-cooled PBS, and were centrifuged at 500 g, 4° C. for 5 minutes, and the supernatant was discarded. Finally, 200 μL/well of pre-cooled PBS was used to resuspend the cells, and the fluorescence signal values were read using ACEA Novocyte 3000 flow cytometer. IC50 values were calculated.

The target is the same in experiment [7]. The experiment can be described thus: flow cytometry, CHOK1/hCD200R1a cells (FITC-Mean); table beside the curves, head without unit, x axis Log [Ab] (nM).
The target is the same in experiment [8]. Kind of experiment: flow cytometry blocking assay: antibody titrated against biotin-labelled human CD200 binding to CHOK1/hCD200R1a cells. How it is done:
To study the activity of human anti-CD200R1 antibodies in blocking the binding of human CD200 to its receptor CD200R1a in vitro, CHOK1/hCD200R1a was used to perform cell-level human CD200/human CD200R1a binding and blocking experiments.
as §4

Experiment [9] shares this target. Kind of experiment: flow cytometry blocking assay: antibody titrated against biotin-labelled human CD200 binding to CHOK1/hCD200R1a cells; head prints EC50 without unit, x axis Log [Ab] (nM), y axis Inhibition %. How it is done: as §4
The target of experiment [10] is T4, CD200R1a on PathHunter Jurkat CD200R1a signaling cells (Eurofins DiscoverX, 93-1136C19) (human, UniProt Q8TD46 25-348).
T4 sequence: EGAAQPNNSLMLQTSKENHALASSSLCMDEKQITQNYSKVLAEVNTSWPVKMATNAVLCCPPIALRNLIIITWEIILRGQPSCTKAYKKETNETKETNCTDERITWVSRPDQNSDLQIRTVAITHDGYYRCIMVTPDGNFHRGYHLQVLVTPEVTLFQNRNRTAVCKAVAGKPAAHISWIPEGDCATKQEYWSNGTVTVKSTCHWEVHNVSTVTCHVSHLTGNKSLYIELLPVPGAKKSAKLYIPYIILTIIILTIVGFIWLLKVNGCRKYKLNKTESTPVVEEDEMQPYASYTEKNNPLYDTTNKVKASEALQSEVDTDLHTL
Kind of experiment: cell-based or functional assay.

In experiment [11] the target is T4, CD200R1a on PathHunter Jurkat CD200R1a …. Kind of experiment: cell-based or functional assay. The source holds these as a separate data set.
Experiment [12] concerns the target T5, Cynomolgus macaques CD200R1 isoform a on CHOK1 cells (CHOK1/cynoCD200R1a) (Cynomolgus macaques).
T5 chain: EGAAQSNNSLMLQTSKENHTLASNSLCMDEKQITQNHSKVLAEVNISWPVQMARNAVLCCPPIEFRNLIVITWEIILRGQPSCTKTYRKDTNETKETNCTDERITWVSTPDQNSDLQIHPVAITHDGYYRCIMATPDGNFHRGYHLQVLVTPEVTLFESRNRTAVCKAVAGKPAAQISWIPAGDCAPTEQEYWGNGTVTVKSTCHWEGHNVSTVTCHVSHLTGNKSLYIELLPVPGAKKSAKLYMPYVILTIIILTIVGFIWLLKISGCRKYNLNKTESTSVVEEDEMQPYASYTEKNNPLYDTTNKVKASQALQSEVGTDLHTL
Kind of experiment: flow cytometry, CHOK1/cynoCD200R1a cells (APC-A Mean); table beside the curves.

B1: PR005514 (antibody, human IgG1, kappa, L234A L235A)
heavy: QVQLVESGGGVVQPGRSLRLSCAASGFTFSSYGFHWVRQAPGKGLEWLGLIWSDGSNKYYADSVKGRFTISRDNSKNTLYLQMNSLRAEDTAVYYCARDRIVGEGFDYWGQGTLVTVSSASTKGPSVFPLAPSSKSTSGGTAALGCLVKDYFPEPVTVSWNSGALTSGVHTFPAVLQSSGLYSLSSVVTVPSSSLGTQTYICNVNHKPSNTKVDKKVEPKSCDKTHTCPPCPAPEAAGGPSVFLFPPKPKDTLMISRTPEVTCVVVDVSHEDPEVKFNWYVDGVEVHNAKTKPREEQYNSTYRVVSVLTVLHQDWLNGKEYKCKVSNKALGAPIEKTISKAKGQPREPQVYTLPPSREEMTKNQVSLTCLVKGFYPSDIAVEWESNGQPENNYKTTPPVLDSDGSFFLYSKLTVDKSRWQQGNVFSCSVMHEALHNHYTQKSLSLSPGK
light: not shown
notes: also called PR60814
For orientation: Kd means the constant that tells how readily two partners part at equilibrium. For orientation: koff means the rate constant with which the complex falls apart. One may read the kon as the second-order rate constant of association. For orientation: EC50 means the concentration needed to bring the measured effect to its halfway point. A low value points to a more potent agent. Broadly, the IC50 is the point on the concentration scale where inhibition reaches its midpoint. For the molecule B1, the “MFI(Max)” value in [1] was determined as 78600; in experiment [2] it was 19300. For the same molecule, the Kd in [3] turned out to be 5.83 nM; in experiment [4], 272 nM. Further, the values for the koff in experiment [3] and in experiment [4] were 0.000316 s⁻¹ and 0.0609 s⁻¹, respectively. For the same molecule, the kon in experiment [3] came out at 54200 M⁻¹ s⁻¹; in [4] it was 224000 M⁻¹ s⁻¹. Besides, the figures for the EC50 in experiment [5], in experiment [7] and in [9] were 4.32 nM, 0.311 nM and 0.471 nM, respectively. Moreover, in experiment [6], the “Blocking(Max)” value stood at 101%. Further, the “Blocking (Max %)” value in [8] is 103%. This molecule registered an IC50 in experiment [8] of 0.419 nM.

B2: PR006839 (antibody, human IgG1, kappa)
heavy: QVQLVESGGGVVQPGRSLRLSCAASGFTFSSYGFHWVRQAPGKGLEWLGLIWSDGSNKYYADSVKGRFTISRDNSKNTLYLQMNSLRAEDTAVYYCARDRIVGEGFDYWGQGTLVTVSSASTKGPSVFPLAPSSKSTSGGTAALGCLVKDYFPEPVTVSWNSGALTSGVHTFPAVLQSSGLYSLSSVVTVPSSSLGTQTYICNVNHKPSNTKVDKKVEPKSCDKTHTCPPCPAPEAAGAPSVFLFPPKPKDTLMISRTPEVTCVVVDVSHEDPEVKFNWYVDGVEVHNAKTKPREEQYNSTYRVVSVLTVLHQDWLNGKEYKCKVSNKALPAPIEKTISKAKGQPREPQVYTLPPSREEMTKNQVSLTCLVKGFYPSDIAVEWESNGQPENNYKTTPPVLDSDGSFFLYSKLTVDKSRWQQGNVFSCSVMHEALHNHYTQKSLSLSPGK
light: not shown
notes: Fc variant of PR005514: human IgG1 with L234A, L235A, G237A (EU)
In the case of B2, the entries for the “IC50 of the inhibition of CD200-induced PathHunter Jurkat CD200R1a luminescence (CHOK1/hCD200 cells as CD200 source)” value in experiment [10] and in experiment [11] were 2 nM and 2.13 nM, respectively. The “MFI(Max)” value in experiment [2] stood at 19700. Further, the EC50 in [12] stood at 2.74 nM; in experiment [7], 0.374 nM; in [9], 0.594 nM. Further, the “MFI (MAX)” value in [12] was determined as 35700. In addition, the “Blocking(Max)” value in experiment [6] is 100%.
